This note sets out measurements from paper PMC6096091, “A two-domain folding intermediate of RuBisCO in complex with the GroEL chaperonin” (International Journal of Biological Macromolecules, 2018).

The data set deals with the molecule itself. Description: cryo-EM structure; binary complex made by 100-fold dilution of acid-urea denatured RuBisCO into 0.1 uM GroEL_(D473C.His6) in 50 mM HEPES pH 7.5, 10 mM KOAc, 10 mM Mg(OAc)2, 5 mM DTT; GroEL 14-mer:RuBisCO monomer 1:2.5; 10 min at 24 °C; single particle cryo-EM, asymmetric reconstructions of 3 classes, 11–12 Å.

B1: E. coli GroEL_(D473C.His6), D473C mutant of GroEL with 6 His tag modification on the mutated cysteine 473 (complex)
chain: not shown
modifications: 6-His-tag modification on the mutated cysteine 473
notes: GroEL chaperonin (large subunit of the GroE operon), Escherichia coli, D473C mutant; the fitted crystal structure is PDB 1OEL; Homo-14-mer of two back-to-back rings of 7; The His6 is a modification attached to the side chain of cysteine 473 (to favour side views), not a terminal tag; also called GroEL_(D473C-6His); GroEL 14-mer; source: expressed and purified as described [20]; copies: 14
Take B1: the binding result is “binds”.
